# The supplement of paper PMC8728848
# The other results are listed elsewhere or left out.
# B1: Mg3lysM (Mycosphaerella graminicola) (protein)
# chain: APQNPPTSCSAAPQPTGTGSPGTVCGSTTFTNYTVKAGDTLGAIAKQYNSGVCDIAKVNGIDNPDYIKPDQVLSIPANCVTPDNTSCVKPVPVITNTCVLGVGSTYTVKSGDSFSAIATSFNITLASLEARNPQIPNYDLIFPGQVINTPLCPNSVCDSIGTYVIESGDIFYNLAQSNNVTVGQLESLNVNVNVTDIHPGDIIILPHNCHNITASA
# What was measured:
# Experiment in all cases: glycan array binding signal (z-score within array); higher = stronger binding
# Conditions in all cases: glycan notation: IUPAC condensed, linker removed
# [1] = biological target: Neu5Ac(a2-3)Gal(b1-3)GlcNAc6S
# Procedure, shortened: (§1)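 The binding signal is a Z-score computed within each array and averaged over linkers. Arrays of the same protein sequence at different concentrations or buffers were also averaged together. Data originate from 3228 arrays in the Consortium for Functional Glycomics database, kept only where the protein sequence was available.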
# [2] = biological target: Neu5Ac(a2-3)Gal(b1-3)[Fuc(a1-4)]GlcNAc
# Procedure, shortened: as §1
# [3] = biological target: Neu5Ac(a2-3)Gal(b1-3)[Fuc(a1-4)]GlcNAc(b1-3)Gal(b1-3)[Fuc(a1-4)]GlcNAc
# Procedure, shortened: as §1
# [4] = biological target: Neu5Ac(a2-3)Gal(b1-3)[Fuc(a1-4)]GlcNAc(b1-3)Gal(b1-4)[Fuc(a1-3)]GlcNAc
# Procedure, shortened: as §1
# [5] = biological target: Neu5Ac(a2-3)Gal(b1-3)[GlcNAc(b1-6)]GalNAc
# Procedure, shortened: as §1
# [6] = biological target: Neu5Ac(a2-3)Gal(b1-3)[Neu5Ac(a2-6)]GalNAc
# Procedure, shortened: as §1
# [7] = biological target: Neu5Ac(a2-3)Gal(b1-3)[Neu5Ac(a2-6)]GlcNAc(b1-3)[Fuc(a1-3)[Gal(b1-4)]GlcNAc(b1-6)]Gal(b1-4)Glc
# Procedure, shortened: as §1
# [8] = biological target: Neu5Ac(a2-3)Gal(b1-3)]Neu5Ac(a2-3)Gal(b1-4)]GlcNAc
# Procedure, shortened: as §1
# Neu5Ac(a2-3)Gal(b1-4)Glc = biological target: Neu5Ac(a2-3)Gal(b1-4)Glc
# Procedure, shortened: as §1
# [9] = biological target: Neu5Ac(a2-3)Gal(b1-4)GlcNAc
# Procedure, shortened: as §1
# [10] = biological target: Neu5Ac(a2-3)Gal(b1-4)GlcNAc(b1-2)Man
# Procedure, shortened: as §1
# [11] = biological target: Neu5Ac(a2-3)Gal(b1-4)GlcNAc(b1-2)Man(a1-3)[GlcNAc(b1-4)][Neu5Ac(a2-3)Gal(b1-4)GlcNAc(b1-2)Man(a1-6)]Man(b1-4)GlcNAc(b1-4)GlcNAc
# Procedure, shortened: as §1
# [12] = biological target: Neu5Ac(a2-3)Gal(b1-4)GlcNAc(b1-2)Man(a1-3)[Neu5Ac(a2-3)Gal(b1-4)GlcNAc(b1-2)Man(a1-6)]Man(b1-4)GlcNAc(b1-4)GlcNAc
# Procedure, shortened: as §1
# [13] = biological target: Neu5Ac(a2-3)Gal(b1-4)GlcNAc(b1-2)Man(a1-3)[Neu5Ac(a2-3)Gal(b1-4)GlcNAc(b1-2)Man(a1-6)]Man(b1-4)GlcNAc(b1-4)[Fuc(a1-6)]GlcNAc
# Procedure, shortened: as §1
# [14] = biological target: Neu5Ac(a2-3)Gal(b1-4)GlcNAc(b1-2)Man(a1-3)[Neu5Ac(a2-6)Gal(b1-4)GlcNAc(b1-2)Man(a1-6)]Man(b1-4)GlcNAc(b1-4)GlcNAc
# Procedure, shortened: as §1
# [15] = biological target: Neu5Ac(a2-3)Gal(b1-4)GlcNAc(b1-2)[Neu5Ac(a2-3)Gal(b1-4)GlcNAc(b1-4)]Man(a1-3)[GlcNAc(b1-4)][Neu5Ac(a2-3)Gal(b1-4)GlcNAc(b1-2)[Neu5Ac(a2-3)Gal(b1-4)GlcNAc(b1-6)]Man(a1-6)]Man(b1-4)GlcNAc(b1-4)GlcNAc
# Procedure, shortened: as §1
# [16] = biological target: Neu5Ac(a2-3)Gal(b1-4)GlcNAc(b1-2)[Neu5Ac(a2-3)Gal(b1-4)GlcNAc(b1-4)]Man(a1-3)[GlcNAc(b1-4)][Neu5Ac(a2-3)Gal(b1-4)GlcNAc(b1-4)Man(a1-6)]Man(b1-4)GlcNAc(b1-4)GlcNAc
# Procedure, shortened: as §1
# [17] = biological target: Neu5Ac(a2-3)Gal(b1-4)GlcNAc(b1-2)[Neu5Ac(a2-3)Gal(b1-4)GlcNAc(b1-6)]Man(a1-6)[Neu5Ac(a2-3)Gal(b1-4)GlcNAc(b1-2)Man(a1-3)][GlcNAc(b1-4)]Man(b1-4)GlcNAc(b1-4)GlcNAc
# Procedure, shortened: as §1
# [18] = biological target: Neu5Ac(a2-3)Gal(b1-4)GlcNAc(b1-3)Gal
# Procedure, shortened: as §1
# [19] = biological target: Neu5Ac(a2-3)Gal(b1-4)GlcNAc(b1-3)Gal(b1-3)GlcNAc
# Procedure, shortened: as §1
# [20] = biological target: Neu5Ac(a2-3)Gal(b1-4)GlcNAc(b1-3)Gal(b1-4)GlcNAc
# Procedure, shortened: as §1
# [21] = biological target: Neu5Ac(a2-3)Gal(b1-4)GlcNAc(b1-3)Gal(b1-4)GlcNAc(b1-2)Man(a1-3)[Neu5Ac(a2-3)Gal(b1-4)GlcNAc(b1-3)Gal(b1-4)GlcNAc(b1-2)Man(a1-6)]Man(b1-4)GlcNAc(b1-4)GlcNAc
# Procedure, shortened: as §1
# [22] = biological target: Neu5Ac(a2-3)Gal(b1-4)GlcNAc(b1-3)Gal(b1-4)GlcNAc(b1-3)Gal(b1-4)GlcNAc
# Procedure, shortened: as §1
# [23] = biological target: Neu5Ac(a2-3)Gal(b1-4)GlcNAc(b1-3)Gal(b1-4)GlcNAc(b1-3)Gal(b1-4)GlcNAc(b1-2)Man(a1-3)[Neu5Ac(a2-3)Gal(b1-4)GlcNAc(b1-3)Gal(b1-4)GlcNAc(b1-3)Gal(b1-4)GlcNAc(b1-2)Man(a1-6)]GalNAc
# Procedure, shortened: as §1
# [24] = biological target: Neu5Ac(a2-3)Gal(b1-4)GlcNAc(b1-3)Gal(b1-4)GlcNAc(b1-3)GalNAc
# Procedure, shortened: as §1
# [25] = biological target: Neu5Ac(a2-3)Gal(b1-4)GlcNAc(b1-3)Gal(b1-4)GlcNAc(b1-3)[Neu5Ac(a2-3)Gal(b1-4)GlcNAc(b1-3)Gal(b1-4)GlcNAc(b1-6)]GalNAc
# Procedure, shortened: as §1
# [26] = biological target: Neu5Ac(a2-3)Gal(b1-4)GlcNAc(b1-3)Gal(b1-4)GlcNAc(b1-6)[Gal(b1-3)]GalNAc
# Procedure, shortened: as §1
# [27] = biological target: Neu5Ac(a2-3)Gal(b1-4)GlcNAc(b1-3)Gal(b1-4)[Fuc(a1-3)]GlcNAc
# Procedure, shortened: as §1
# [28] = biological target: Neu5Ac(a2-3)Gal(b1-4)GlcNAc(b1-3)GalNAc
# Procedure, shortened: as §1
# [29] = biological target: Neu5Ac(a2-3)Gal(b1-4)GlcNAc(b1-3)[Neu5Ac(a2-3)Gal(b1-4)GlcNAc(b1-6)]GalNAc
# Procedure, shortened: as §1
binder,measurement,setting,value
B1,glycan array binding signal (z-score),[1],-0.154
same,glycan array binding signal (z-score),[2],-0.121
same,glycan array binding signal (z-score),[3],-0.018
same,glycan array binding signal (z-score),[4],0.086
same,glycan array binding signal (z-score),[5],-0.183
same,glycan array binding signal (z-score),[6],-0.102
same,glycan array binding signal (z-score),[7],0.077
same,glycan array binding signal (z-score),[8],-0.041
same,glycan array binding signal (z-score),Neu5Ac(a2-3)Gal(b1-4)Glc,0.019
same,glycan array binding signal (z-score),[9],-0.097
same,glycan array binding signal (z-score),[10],-0.135
same,glycan array binding signal (z-score),[11],0.008
same,glycan array binding signal (z-score),[12],-0.02
same,glycan array binding signal (z-score),[13],-0.085
same,glycan array binding signal (z-score),[14],-0.088
same,glycan array binding signal (z-score),[15],0.036
same,glycan array binding signal (z-score),[16],-0.037
same,glycan array binding signal (z-score),[17],-0.095
same,glycan array binding signal (z-score),[18],-0.078
same,glycan array binding signal (z-score),[19],-0.035
same,glycan array binding signal (z-score),[20],-0.099
same,glycan array binding signal (z-score),[21],-0.142
same,glycan array binding signal (z-score),[22],-0.099
same,glycan array binding signal (z-score),[23],-0.06
same,glycan array binding signal (z-score),[24],-0.074
same,glycan array binding signal (z-score),[25],0.153
same,glycan array binding signal (z-score),[26],-0.077
same,glycan array binding signal (z-score),[27],-0.082
same,glycan array binding signal (z-score),[28],-0.069
same,glycan array binding signal (z-score),[29],0.02
